Test results: US8546421B1, “Oncogenic-RAS-signal dependent lethal compounds” (The Trustees of Columbia University in the City of New York, priority 2007, dated 2013)

Legend:
[1] = tested on: TRE, TRE/E6/E7/ST and TRE/E6/E7/ST/RAS^V12 cells; assay: Alamar blue assay in isogenic cells with or without oncogenic RAS
[2] = tested on: BJ-TERT/p53DD/CDK4/cyclinD1/ST/RAS^V12 (DRD) cells; assay: Alamar blue growth inhibition, DRD cell line test; type: cell-based, human; settings: for potency / activity in DRD cells (in words): compared with BJ-TERT/LT/ST/RAS^V12 cells, alamar blue

SMILES | selectivity towards oncogenic HRAS in TRE cell system (in words) [1] | potency / activity in DRD cells (in words) [2] | concentration at which growth was inhibited (as low as) ([2]; DRD cells, 48 hours) [ng/mL]
COCCOC(=O)C1=C(C)NC2=C(C(=O)CC(c3ccc(Cl)cc3)C2)C1c1ccccc1F (centres unmarked) [Compound 3] | selectivity of Compound 3 against oncogenic RAS was manifest | – | –
COCCOC(=O)C1=C(C)NC2=C(C(=O)CC(c3ccccc3)C2)C1c1ccccc1F (centres unmarked) [Compound 4] | – | inactive | –
COC(=O)c1ccc(C2c3[nH]c4ccccc4c3CC(C(=O)OC)N2C(=O)CCl)cc1 (centres unmarked) [Compound 27] | slightly more sensitive | – | ≥ 10
C=C1CCC2C(C)(C)CCC[C@]2(C)C1CC/C(C)=C\CC/C(C)=N/NC(N)=S (some centres unmarked) [Compound 36] | increase in sensitivity upon activation of oncogenic RAS signaling was seen | close to that of BJ-TERT/LT/ST cells | –
COc1cccc2c1C(=O)c1c(O)c3c(c(O)c1C2=O)C[C@@](O)(C(C)=O)C[C@@H]3O[C@H]1C[C@H](N)[C@H](O)[C@H](C)O1 [daunorubicin, reference compound] | – | none of these traditional chemotherapeutic agents were active | –
COc1cccc2c1C(=O)c1c(O)c3c(c(O)c1C2=O)C[C@@](O)(C(=O)CO)C[C@@H]3O[C@H]1C[C@H](N)[C@H](O)[C@H](C)O1 [doxorubicin, reference compound] | – | none of these traditional chemotherapeutic agents were active | –
O=C1c2c(O)ccc(O)c2C(=O)c2c(NCCNCCO)ccc(NCCNCCO)c21 [mitoxantrone, reference compound] | – | none of these traditional chemotherapeutic agents were active | –
COc1cc([C@@H]2c3cc4c(cc3[C@@H](O[C@@H]3O[C@@H]5CO[C@@H](c6cccs6)O[C@H]5[C@H](O)[C@H]3O)[C@H]3COC(=O)[C@H]23)OCO4)cc(OC)c1O [teniposide, reference compound] | – | not equally active | –
CC[C@]1(O)C[C@@H]2CN(CCc3c([nH]c4ccccc34)[C@@](C(=O)OC)(c3cc4c(cc3OC)N(C)[C@H]3[C@@](O)(C(=O)OC)[C@H](OC(C)=O)[C@]5(CC)C=CCN6CC[C@]43[C@@H]65)C2)C1 [vinblastine, reference compound] | – | not equally active | –
